Reference: the supplement of paper PMC4967469
The IC50 comes from the fitted curve, where viability falls to half of the control; a fit beyond the top or the lowest dose is shown as a bound at that dose. AUC is the area under the same curve over the 256-fold range up to the top dose, as a fraction; values near 1 show little effect. For some of these results: A top dose marked as inferred comes from the curve model; the source does not state it. For some of these results: An entry number marks a drug with two screens in the source, which often give different values.

Assays:
Assay in all cases: Viability of human cancer cell lines after 72 h of drug (GDSC screen)
[1] = compound: CC/C(=C(\c1ccccc1)c1ccc(OCCN(C)C)cc1)c1ccccc1 [Tamoxifen]; details: top dose 5 µM
Procedure: (§1)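 Human cancer cell lines in 384-well plates, medium with 10% serum, drug for 72 h over a 256-fold dose range (nine 2-fold or five 4-fold steps up to the top dose). Adherent lines were fixed and stained with the nucleic acid dye Syto60, suspension lines read with resazurin; signal relative to control wells, capped at 0 and 100%. One two-parameter sigmoid per drug and line, fitted in a mixed model over all curves with the slope shared within a line.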

[2] = compound: COc1cc(N2CCC(C(N)=O)CC2)ccc1Nc1nc(N)c(Cl)c(Nc2ccccc2S(=O)(=O)C(C)C)n1 [HG-5-88-01]; details: top dose 10 µM; top dose inferred
Procedure: as §1

[3] = compound: O=S(=O)(O)c1ccc2cc(N=Nc3cc(S(=O)(=O)O)c4cccnc4c3O)ccc2c1 [NSC-87877]; details: top dose 16 µM; top dose inferred
Procedure: as §1

[4] = compound: CN(NC(=O)CC(=O)NN(C)C(=S)c1ccccc1)C(=S)c1ccccc1 [Elesclomol]; details: top dose 0.2 µM; top dose inferred
Procedure: as §1

[5] = compound: O=C(Nc1cccc(Nc2ncc(Br)c(NCCc3cnc[nH]3)n2)c1)N1CCCC1 [BX-912]; details: top dose 10.24 µM; top dose inferred
Procedure: as §1

[6] = compound: CCCC(=O)OCc1ccc(OC(=O)/C=C(C)/C=C/C=C(C)/C=C/C2=C(C)CCCC2(C)C)cc1 [VNLG/124]; details: top dose 5.12 µM; top dose inferred
Procedure: as §1

[7] = compound: O=C(Nc1ccc(OC(F)(F)F)cc1)c1sccc1NCc1ccnc2ccccc12 [OSI-930]; details: top dose 10.24 µM
Procedure: as §1

[8] = compound: Cc1ccc(NC(=O)c2ccc(CN3CCN(C)CC3)cc2)cc1Nc1nc(-c2cccnc2)cs1 [Masitinib]; details: top dose 20 µM
Procedure: as §1

[9] = compound: Cc1c(N)nc([C@H](CC(N)=O)NC[C@H](N)C(N)=O)nc1C(=O)N[C@H](C(=O)N[C@H](C)[C@@H](O)[C@H](C)C(=O)N[C@H](C(=O)NCCc1nc(-c2nc(C(=O)NCCC[S+](C)C)cs2)cs1)[C@@H](C)O)[C@@H](OC1OC(CO)C(O)C(O)C1OC1OC(CO)C(O)C(OC(N)=O)C1O)c1cnc[nH]1 [Bleomycin]
Procedure: as §1

[10] = compound: O=C(/C=C/c1ccc(CN(CCO)CCc2c[nH]c3ccccc23)cc1)NO [LAQ824]; details: top dose 1.024 µM; top dose inferred
Procedure: as §1

[11] = top dose 64 µM, screen: GDSC drug entry 190
[12] = top dose 50 µM, screen: GDSC drug entry 1378, top dose inferred

Cell Line | AUC [1] | IC50 [1] | AUC [2] | IC50 [2] | AUC [3] | IC50 [3] | AUC [4] | IC50 [4] | AUC [5] | IC50 [5] | AUC [6] | IC50 [6] | AUC [7] | IC50 [7] | AUC [8] | IC50 [8] | AUC [9, 11] | IC50 [9, 11] | AUC [10] | IC50 [10] | AUC [9, 12] | IC50 [9, 12]
RPMI-8866 (chronic myeloid leukaemia, suspension) | 0.893 | > 5 µM | 0.967 | > 10 µM | 0.968 | > 16 µM | 0.329 | 0.00435 µM | 0.974 | > 10.2 µM | 0.967 | > 5.12 µM | 0.95 | > 10.2 µM | 0.847 | 13.2 µM | 0.604 | 7.54 µM | 0.541 | 0.0821 µM |  | 
RT4 (bladder, adherent) | 0.986 | > 5 µM | 0.984 | > 10 µM | 0.986 | > 16 µM | 0.97 | > 0.2 µM | 0.804 | 5.47 µM | 0.966 | > 5.12 µM | 0.986 | > 10.2 µM | 0.927 | > 20 µM | 0.048 | < 0.25 µM | 0.647 | 0.167 µM | 0.588 | 5.53 µM
RVH-421 (melanoma, adherent) | 0.954 | > 5 µM | 0.957 | > 10 µM | 0.929 | > 16 µM | 0.767 | 0.102 µM | 0.892 | > 10.2 µM | 0.952 | > 5.12 µM | 0.86 | > 10.2 µM | 0.831 | 19.7 µM | 0.452 | 2.82 µM | 0.464 | 0.0491 µM | 0.714 | 16 µM
RXF393 (kidney, adherent) | 0.938 | > 5 µM | 0.933 | > 10 µM | 0.978 | > 16 µM | 0.483 | 0.011 µM | 0.84 | > 10.2 µM | 0.963 | > 5.12 µM | 0.955 | > 10.2 µM | 0.816 | 17 µM | 0.816 | 54.6 µM | 0.525 | 0.0768 µM | 0.609 | 7.02 µM
SBC-1 (small cell lung carcinoma, suspension) | 0.988 | > 5 µM | 0.979 | > 10 µM | 0.989 | > 16 µM | 0.976 | > 0.2 µM | 0.978 | > 10.2 µM | 0.989 | > 5.12 µM | 0.989 | > 10.2 µM | 0.989 | > 20 µM | 0.954 | > 64 µM | 0.642 | 0.155 µM | 0.888 | > 50 µM
SBC-3 (small cell lung carcinoma, adherent) | 0.988 | > 5 µM | 0.968 | > 10 µM | 0.989 | > 16 µM | 0.402 | 0.00692 µM | 0.692 | 2.08 µM | 0.989 | > 5.12 µM | 0.857 | 7.17 µM | 0.713 | 4.69 µM | 0.155 | 0.398 µM | 0.153 | 0.00628 µM | 0.463 | 2.5 µM
